Source: paper PMC5496915, “Interactions between LHX3- and ISL1-family LIM-homeodomain transcription factors are conserved in Caenorhabditis elegans” (Scientific Reports, 2017)
Residue numbers refer to the chain shown, from its start. These are yes or no findings as the source states them, for the method shown. Some results given as binding are weak or reduced against the parent protein; the word gives no strength.

Legend:
[1] = target: T1, WT LIM-7LID (LIM interaction domain of LIM-7) (C. elegans); experiment: two-hybrid; AH109 yeast co-transformed with pGBT9 and pGAD10 plasmids, bait and prey in alternate vector combinations; growth on moderate (-L-W-H + 3-AT) and high (-L-W-H-A) stringency media; 30 °C, 72 h (Figure 2C)
T1 sequence: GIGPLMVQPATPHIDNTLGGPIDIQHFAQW

[2] = target: T2, LIM-7LID L351A/M352A (C. elegans); experiment: two-hybrid; alanine mutagenic screen: LIM-7LID constructs in pGBT9, CEH-14_(LIM1+2) in pGAD10; AH109 yeast; growth on moderate (SD -H-L-W + 1 mM 3-AT) / strong (SD -H-L-W-A) selective media at three dilutions; 30 °C, 72 h (Table 2)
T2 sequence: T1 sequence with L5A, M6A

[3] = target: T3, LIM-7LID G365A/G366A/P367A (C. elegans); experiment: as above
T3 sequence: T1 sequence with G19A, G20A, P21A

[4] = target: T4, LIM-7LID Q371A/H372A/F373A (C. elegans); experiment: as above
T4 sequence: T1 sequence with Q25A, H26A, F27A

[5] = target: T5, LIM-7(P350A/L351A/M352A) (C. elegans); experiment: as above
T5 sequence: T1 sequence with P4A, L5A, M6A

[6] = target: T6, LIM-7LID H359A (C. elegans); experiment: as above
T6 sequence: T1 sequence with H13A

[7] = target: T7, LIM-7LID N362A/T363A/L364A (C. elegans); experiment: as above
T7 sequence: T1 sequence with N16A, T17A, L18A

[8] = target: T8, LIM-7LID I368A/D369A/I370A (C. elegans); experiment: as above
T8 sequence: T1 sequence with I22A, D23A, I24A

[9] = target: T9, LIM-7LID I360A (C. elegans); experiment: as above
T9 sequence: T1 sequence with I14A

[10] = target: T10, LIM-7(A374G/Q375A/W376A) (C. elegans); experiment: as above
T10 sequence: T1 sequence with A28G, Q29A, W30A

[11] = target: T11, LIM-7(H359A/I360A/D361A) (C. elegans); experiment: as above
T11 sequence: T1 sequence with H13A, I14A, D15A

[12] = target: T12, LIM-7LID P350A (C. elegans); experiment: as above
T12 sequence: T1 sequence with P4A

[13] = target: T13, LIM-7LID P350A/L351A/M352A/I360A (C. elegans); experiment: as above
T13 sequence: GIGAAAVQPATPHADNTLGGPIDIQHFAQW

[14] = target: T14, LIM-7LID L351A (C. elegans); experiment: as above
T14 sequence: T1 sequence with L5A

[15] = target: T15, LIM-7LID V353A (C. elegans); experiment: as above
T15 sequence: T1 sequence with V7A

[16] = target: T16, LIM-7LID P350A/L351A (C. elegans); experiment: as above
T16 sequence: T13 sequence with A6M, A14I

[17] = target: T17, LIM-7LID D361A (C. elegans); experiment: as above
T17 sequence: T1 sequence with D15A

[18] = target: T18, LIM-7LID V353A/Q354A/P355A (C. elegans); experiment: as above
T18 sequence: T1 sequence with V7A, Q8A, P9A

[19] = target: T1, WT LIM-7LID (LIM interaction domain of LIM-7) (C. elegans); experiment: as above
[20] = target: T19, LIM-7LID M352A (C. elegans); experiment: as above
T19 sequence: T1 sequence with M6A

[21] = target: T20, LIM-7LID A356G/T357A/P358A (C. elegans); experiment: as above
T20 sequence: T1 sequence with A10G, T11A, P12A

[22] = target: T21, LIM-7LID G347A/I348A/G349A (C. elegans); experiment: as above
T21 sequence: T1 sequence with G1A, I2A, G3A

[23] = target: T22, LIM-7LID P350A/L351A/M352A/H359A (C. elegans); experiment: as above
T22 sequence: T13 sequence with H13A, A14I

[24] = target: T23, LIM-7LID P350A/L351A/M352A/D361A (C. elegans); experiment: as above
T23 sequence: T13 sequence with A14I, D15A

binding [1]: binds
B1: CEH-14_(LIM1+2) (tandem LIM domains of CEH-14) (domain or fragment, UniProt P20271 42-168)
chain: NNEEAICSLCDKKIRDRFVSKVNGRCYHSSCLRCSTCKDELGATCFLREDSMYCRAHFYKKFGTKCSSCNEGIVPDHVVRKASNHVYHVECFQCFICKRSLETGEEFYLIADDARLVCKDDYEQARD
binding [2]: binds | binding [3]: binds | binding [4]: binds | binding [5]: binds | binding [6]: binds | binding [7]: binds | binding [8]: binds | binding [9]: binds | binding [10]: binds | binding [11]: no binding | binding [12]: binds | binding [13]: no binding | binding [14]: binds | binding [15]: binds | binding [16]: binds | binding [17]: binds | binding [18]: binds | binding [19]: binds | binding [20]: binds | binding [21]: binds | binding [22]: binds | binding [23]: no binding | binding [24]: no binding
